Columns and labels:
[1] = test system: overall appearance associated genes; assay: Effect on overall appearance associated genes; conditions: FIG. 5
[2] = test system: eigengene for the "Cell Adhesion and Junction" theme; conditions: cultured human keratinocytes; for effect on eigengene of "Cell Adhesion and Junction" theme: transcriptome profile, FIG. 4

Row | Substance | anti-aging benefit on the overall appearance associated genes [1] | effect on eigengene of "Cell Adhesion and Junction" theme [2] | eigengene expression associated with cell junction assembly and cell adhesion processes [2]
1 | palmitoyl-lysine-threonine [Pal-KT] | strong anti-aging benefit | significantly up-regulate | –
2 | palmitoyl-lysine-threonine-threonine-lysine-serine [Pal-KTTKS] | – | significantly up-regulate | significantly increase
